Hit rate of the full screen: of about 52,000 compounds, about 4,300 (8.3%) were called active. No stated cut-off is given here; in the data, active means survival mostly below about 52% (no sharp cut-off); inactive means mostly above about 56%. Some of the results follow.
tested on: DeltatarO mutant; assay: growth inhibition of S. aureus wild type versus tarO mutant, primary screen, teichoic acid synthesis inhibitors, RN4220, OD600 (AID 463173); settings: OD600, 18 h, stronger effect = lower value, screened at 18.75 µg/mL (by protocol)

Compound | survival
CCOc1ccccc1CNC(=O)c1[nH]c2ccccc2c1Sc1ccccc1 | inactive: 72%
O=C(c1ccco1)N1CCN(c2nc3ccc(Cl)cc3s2)CC1 | inactive: 95%
CCn1ccc2cc(S(=O)(=O)N3CCC(C(=O)NCCOC)CC3)ccc21 | inactive: 60%
CCN1CCN(CCCNC(=O)c2cc3c(s2)-c2c(C)cccc2OC3)CC1 | inactive: 102%
O=S(=O)(c1ccc(-c2cc(C(F)(F)F)on2)s1)N1CCN(c2cccc(Cl)c2)CC1 | inactive: 117%
NC(=S)N(c1ccccc1)c1ccccc1 | inactive: 98%
Cc1ccc(C)c(N2CCN(C(=O)c3cccn3-c3nnc(N4CCCCC4)s3)CC2)c1 | inactive: 57%
COc1ccccc1CCNC(=O)CCc1c(C)c2cc3c(C)coc3cc2oc1=O | inactive: 63%
COc1cccc(CNC(=O)c2cc3c(=O)n(C)c4ccccc4c3n2C)c1 | inactive: 83%
CC1(C)CC2CC(C)(CN2C(=O)CCCN2C(=O)c3ccccc3C2=O)C1 (stereo not given) | inactive: 70%
COCCn1c(C)cc(O)c(C(c2ccccc2OC)N2CCCCC2)c1=O (stereo not given) | inactive: 81%
CC(C)(C)NC(=O)C1CC(=O)OC12CCCCC2 (stereo not given) | inactive: 85%
Cc1ccc(NC(=O)Cn2c(=O)c(C(F)(F)F)nc3ccccc32)c(C)c1 | inactive: 81%
Cc1ccc(N2CCN(C(=O)C3CCC(CNS(=O)(=O)c4ccc(Br)s4)CC3)CC2C)cc1 (stereo not given) | inactive: 71%
COc1ccc2cc(CNc3ccccc3)c(=O)n(CC(=O)Nc3ccc(C)cc3C)c2c1 | active: 0%
Cc1ccc2nc(SCc3nc(-c4ccccc4C)no3)[nH]c2c1 | active: 25%
O=C(NN1C(=O)C2C3c4ccccc4C(c4ccccc43)C2C1=O)c1cccnc1 (stereo not given) | inactive: 71%
Cc1ccc2c(CC(=O)Nc3c(C(=O)Nc4cccc(Cl)c4)oc4ccccc34)coc2c1C | inactive: 62%
COc1cc(C)nc(N2CCCC(C(=O)Nc3ccccc3Br)C2)n1 (stereo not given) | inactive: 91%
CCc1cnc2c(c1SCC(=O)NCc1ccccc1)c(=O)n(C)c(=O)n2C | inactive: 97%
CC(C)(C)c1ccc(C(=O)N2CC(=O)Nc3ccc(F)cc3C2c2ccc(F)cc2)cc1 (stereo not given) | inactive: 65%
Cc1cc(C)c2oc(-c3cccc(NC(=O)c4cc5ccccc5o4)c3)nc2c1 | active: 36%
COc1cc(CCC(=O)NCc2ccc3c(c2)CCN3C(=O)c2cccc(C)c2)cc(OC)c1OC | inactive: 118%

Compound | survival
COc1cc(C2c3c(oc4ccccc4c3=O)C(=O)N2Cc2ccccc2Cl)ccc1O (stereo not given) | inactive: 79%
Cc1ccc(Nc2cc(C(=O)NC3CCCC3)c3ccccc3n2)c(C)c1 | inactive: 77%
CN(Cc1ccccc1)C(=O)Cn1ncc2c3ccccc3n(Cc3cccc(Cl)c3)c2c1=O | inactive: 90%
CCc1cccc(OCC(=O)Nc2c[nH]c(=O)[nH]c2=O)c1 | inactive: 100%
COc1ccc(NC(=O)CSC2=Nc3ccccc3C3=NC(Cc4ccccc4)C(=O)N23)cc1Cl (stereo not given) | inactive: 78%
Cc1ccc(Cl)cc1Nc1sc(C(=O)c2ccccc2)c(N)c1S(=O)(=O)c1ccccc1 | inactive: 75%
O=S(=O)(Nc1cccnc1)c1ccc(C2CCCCC2)cc1 | inactive: 79%
Cc1ccc(CCNC(=O)c2c(C)oc3ncnc(N4CCOCC4)c23)cc1 | inactive: 126%
Fc1cccc(NCc2cccn2-c2nnc(N3CCOCC3)s2)c1 | inactive: 80%
COc1cccc(CNC(=O)N2CCC(CN3CCC(C)CC3)CC2)c1 | inactive: 102%
CCc1cccc(NC(=O)c2nc(-c3ccncc3)no2)c1 | inactive: 94%
CCOc1ccc(C(=O)Nc2ccc(-c3nc4cc(C(C)C)ccc4o3)cc2)cc1Cl | inactive: 65%
COc1ccc(C2=NN(CC(=O)NCc3ccccc3Cl)C(=O)CC2)cc1 | inactive: 107%
COc1cccc(CCNC(=O)c2c(O)nc3cc(C)ccn3c2=O)c1 | inactive: 82%
COc1ccc(-c2nc(CCNC(=O)c3cccs3)cs2)cc1OC | inactive: 134%
Cc1c(NC=O)c(=O)n(-c2ccccc2)n1C | inactive: 73%
COCCCNC(=O)Nc1cc(C(=O)NCc2ccc(OC)cc2)ccc1N1CCCC1 | inactive: 67%
CCc1ccccc1NC(=O)C(NS(=O)(=O)c1ccc2c(c1)CCC(=O)N2)c1ccccc1 (stereo not given) | inactive: 90%
COc1ccc(NC(=O)CSc2nc(-c3ccc(OC)cc3)[nH]c2-c2ccc(F)cc2)cc1 | inactive: 77%
COc1ccccc1NC(=O)c1ccccc1NC(=O)c1ccccc1 | active: 20%
CN(C)c1ccc(CNC(=O)CCC(=O)N2Cc3ccccc3Oc3ncccc32)cc1 | inactive: 83%
COc1cc2cc(CNc3ccc(C)cc3)c(=O)n(CC(=O)Nc3ccc(C(C)C)cc3)c2cc1OC | inactive: 112%
COc1ccc(-c2c3c(nc4sc(C(=O)Nc5ccc(Cl)cc5)c(N)c24)CC(C)(C)CC3=O)cc1 | inactive: 55%

Compound | survival
Cc1ccc(-c2cc(C(F)F)n3ncc(C(=O)NCC4CCCO4)c3n2)cc1 (stereo not given) | inactive: 87%
Cc1ccc(CN(C(=O)COc2ccc(C(C)(C)C)cc2)C2CCS(=O)(=O)C2)o1 (stereo not given) | inactive: 78%
Cn1nnc2c(N3CCCCC3)ncnc21 | inactive: 69%
CCOc1ccccc1NC(=O)CN(CCc1ccccc1)S(=O)(=O)c1ccc(C)cc1 | inactive: 106%
COCCc1nn2c(=O)cc(COC(=O)c3cccs3)nc2s1 | inactive: 77%
CCn1ccc2cc(S(=O)(=O)N3CCC(C(=O)NCCc4ccc(SC)cc4)CC3)ccc21 | inactive: 102%
CCc1cccc(C)c1NC(=O)CN1C(=O)c2c(c3ccccc3n2C)C1c1ccc(OC)cc1 (stereo not given) | inactive: 83%
COc1ccccc1CNC(=O)c1cc(Sc2cccc(Cl)c2)nc2ccccc12 | inactive: 120%
COc1cc(OC)c(NC(=O)C2=C(C)C(=O)OC23CCCCC3)cc1Cl | inactive: 84%
CC(C)(O)c1cc(=N)sc2nc3ccccc3n12 | inactive: 87%
C=CCN1C=C/C(=C\C=C(C#N)C#N)c2ccccc21 | inactive: 82%
CCc1ccc(C(=O)c2cnc3ccc(C)cc3c2S(=O)(=O)c2ccc(OC)cc2)cc1 | inactive: 116%
COc1ccc2cc(CNc3ccc(C)cc3)c(=O)n(CC(=O)Nc3ccc(OC)c(Cl)c3)c2c1 | inactive: 89%
O=C(CCCn1c(=O)c2sccc2n(Cc2ccc(F)cc2Cl)c1=O)NCc1ccc2c(c1)OCO2 | inactive: 66%
O=c1cc(-c2ccccc2)n2c(SCc3ccc([N+](=O)[O-])cc3)nnc2[nH]1 | inactive: 81%
COC(=O)c1ccccc1NC(=O)c1ccc2c(c1)CCN2S(=O)(=O)c1ccc(C)cc1 | inactive: 52%
Cc1ccc2c(c1)-c1c(ssc1=S)C(C)(C)N2C(=O)CN1CCOCC1 | inactive: 50%
O=C(O)Cn1nc(N2CCN(c3ccc(F)cc3)CC2)ccc1=O | inactive: 84%
Cc1ccc(NC(=O)C2=C(C(=O)O)CCCC2)cc1Br | inactive: 94%
O=C1OC(c2ccc(Br)o2)=N/C1=C/c1ccco1 | inactive: 98%
CCCCn1c(CNC(=O)C23CC4CC(CC(C4)C2)C3)nnc1SCC(=O)Nc1ccccc1 | inactive: 54%
Cc1ncc(COC(=O)C(C)C)c2cc(C(=O)Nc3ccccc3C(F)(F)F)c(=O)oc12 | inactive: 134%
CCN(CC)CCCNC(=O)CCc1c(C)n(CC)c2cc(-c3ccccc3OC)nn2c1=O | inactive: 92%

Compound | survival
COC(=O)NNC(=O)C1CCC(C)CC1 (stereo not given) | inactive: 56%
CN1c2ccc(Cl)cc2-c2nc(SCC(=O)Nc3cc(F)ccc3F)ncc2S1(=O)=O | inactive: 72%
Cc1cccc(N2C(=O)CS(=O)(=O)C23C(=O)N(C)c2ccccc23)c1 (stereo not given) | inactive: 85%
Cc1c(C(=O)N2CCCC2)oc2c1-c1nn(CC(=O)NCc3cccc(F)c3)cc1CC2 | inactive: 80%
Cc1ccc2c(c1)N(C(=O)N1CCC(C(=O)NCCC3=CCCCC3)CC1)CC(C)O2 (stereo not given) | inactive: 81%
O=C(CCc1nc2cccnc2n1Cc1ccccc1)NCc1cccc(Cl)c1 | active: 51%
Cc1ccccc1Nc1ncnc2c1c(-c1ccccc1)cn2-c1ccc(F)cc1 | inactive: 72%
O=C(Nc1cccc(Cl)c1)c1ccc2nc(Cc3ccccc3)oc2c1 | inactive: 81%
OCc1cnc(SCc2cccc(F)c2)n1Cc1ccc(F)cc1 | inactive: 134%
COc1ccccc1C(=O)Nc1cccc(C(=O)OCc2cc(=O)n3nc(C)sc3n2)c1 | inactive: 77%
Cc1c(Cl)cccc1NC(=O)Cn1nnc2sc3c(c2c1=O)CCCC3 | inactive: 75%
O=C(c1cc2ccc3cccnc3c2[nH]1)N1CCN(c2ccc(Cl)cc2)CC1 | inactive: 84%
O=C(Nc1cccc(Cl)c1Cl)c1cc(S(=O)(=O)NCCc2ccccc2)ccc1F | inactive: 87%
NC(=O)CSc1ncc2c(n1)-c1ccccc1N(Cc1ccc(Cl)cc1)S2(=O)=O | inactive: 64%
O=C(CN1C(=O)C2(SCC(=O)N2c2ccccc2)c2ccccc21)NCc1ccccc1 (stereo not given) | inactive: 82%
Cc1cccc(C)c1NS(=O)(=O)c1ccc(NS(=O)(=O)c2ccc3c(c2)OCCO3)cc1 | inactive: 110%
O=C(Nc1noc2ccccc12)c1ccc(F)cc1 | inactive: 67%
CCOC(=O)c1ccc(NC(=O)C2(S(=O)(=O)c3ccc(Cl)cc3)CC2)cc1 | inactive: 75%
COc1ccc(CNC(=O)c2cc(=O)c3cc(C)ccc3o2)cc1 | active: 45%
C=Cc1ccc(COc2ccc3oc(-c4ccccc4)c(C(=O)OCC)c3c2)cc1 | active: 45%
Cc1cccc(N2CCN(C(=O)CCS(=O)(=O)c3ccc4c(c3)oc(=O)n4C)CC2)c1C | inactive: 79%

— PubChem BioAssay AID463173 (ICCB-Longwood Screening Facility, Harvard Medical School, 2010)
